{
  "source": "PubChem BioAssay (NCI)",
  "note": "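Each compound was tested at five concentrations against cells in 96-well plates for 48 hours. GI50 marks 50% less growth. The concentration for full growth arrest is given as TGI.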",
  "data": [
    {"system": "NCI-H322M lung", "test": "NCI tumour cell line growth inhibition, 48 h", "units": {"TGI": "µM", "GI50": "µM"}, "values": [
      {"compound": "CC(Oc1ccc2c(-c3ccc(Cl)cc3)cc(=O)oc2c1)C(=O)O", "note": "(configuration not stated)", "TGI": "> 100"},
      {"compound": "CC1OC(OC2C(O)COC(OC3C(C)OC(OC4C(OC(=O)[C@]56CCC(C)(C)C[C@@H]5C5=CCC7[C@@]8(C)C[C@H](O)[C@H](OC9OC(CO)C(O)C(O)C9O)[C@@](C)(CO)[C@@H]8CC[C@@]7(C)[C@]5(C)CC6)OCC(O)C4O)C(O)C3O)C2O)C(O)C(O)C1O", "note": "(some centres not stated)", "TGI": 33.2},
      {"compound": "CC(C)(C)C1=C(Br)C(F)(C(C)(C)C)OP1(=O)c1ccccc1", "note": "(configuration not stated)", "TGI": 37.3},
      {"compound": "O=C(O)Cc1cccc2c(=O)cc(-c3ccccc3)oc12", "GI50": "> 1000", "TGI": "> 1000"},
      {"compound": "O=c1cc(-c2ccc(F)cc2)[nH]c2ncccc12", "TGI": "> 100"},
      {"compound": "COc1cnc2c(c1)C(=O)c1c-2n(CCCN2CCCC2)c(=O)c2cc([N+](=O)[O-])ccc12", "GI50": 0.0522, "TGI": 6.14},
      {"compound": "CCOC(=O)C1(C(=O)OCC)C(C(C)(C)C)=C(C)c2ccccc21", "TGI": 54.3},
      {"compound": "O=C1Nc2c(Cl)cc(Cl)cc2/C1=N/N=C/c1ccco1", "TGI": "> 100"},
      {"compound": "CN1CCC2(CC1)SSC1(CCN(C)CC1)S2", "TGI": "> 100"},
      {"compound": "CCOC(=O)C(=Cc1ccc(C#N)cc1)C(=O)OCC", "GI50": 3.48, "TGI": 14.4},
      {"compound": "CCN1CCN(CCNc2nccc(-c3c(-c4ccc(F)c(O)c4)nc4occn34)n2)S1(=O)=O", "GI50": "> 100", "TGI": "> 100"},
      {"compound": "CC1C(C)(C)C23CC12C1(OCCO1)C3Br", "note": "(configuration not stated)", "TGI": "> 100"},
      {"compound": "CCC(CC)n1cnc2c(-c3cnc(N)cn3)nc(N3CC4CCC(C3)O4)nc21", "GI50": 0.352, "TGI": "> 100"},
      {"compound": "Cn1c(-c2ccc(C=O)o2)ccc1-c1ccc(C=O)o1", "TGI": "> 100"},
      {"compound": "CCn1c(SCC(=O)N/N=C2\\SCC(=O)N2c2ccc(C)cc2)nc2ccccc2c1=O", "TGI": 33.5},
      {"compound": "CSC(=O)C[C@@]12O[C@@H]([C@@H](C)C3CCC4[C@@H]5C(O)CC6=CC(=O)C=C[C@]6(C)C5CC[C@@]43C)C[C@](C)(O1)C(C)(C)O2", "note": "(some centres not stated)", "TGI": 33.4},
      {"compound": "Cc1nc(OCc2ccccc2)c2ncn(CCO)c2n1", "TGI": "> 100"},
      {"compound": "COc1cc2nc(N3CCCN(C)CC3)nc(NC3CCN(Cc4ccccc4)CC3)c2cc1OC", "GI50": 2.61, "TGI": 7.69},
      {"compound": "CCOC(=O)CNC(=O)C(CCC(=O)N(C)O)NC(=O)CCC(N)C(=O)O", "note": "(configuration not stated)", "TGI": "> 100"},
      {"compound": "C#CC1(O)CCC2[C@@H]3CCc4cc(Oc5nc(F)nc(-c6c(C)c(C(=O)OCC)n7ccccc67)n5)ccc4C3CC[C@@]21C", "note": "(some centres not stated)", "TGI": "> 100"},
      {"compound": "COC(=O)C1=CO[C@@H](C)[C@@H]2Cn3ccc4c5ccccc5nc-4c3C[C@H]12", "TGI": "> 100"},
      {"compound": "Cc1ncn(-c2ccccc2O)c1C", "TGI": "> 100"},
      {"compound": "CC1CCN(C(C)C)P(=S)(Cc2ccccc2)O1", "note": "(configuration not stated)", "TGI": "> 100"},
      {"compound": "COc1ccc2c(c1)c(-c1nc(-c3cn(C)c4ccncc34)cs1)cn2C", "GI50": 1.78, "TGI": 3.42},
      {"compound": "CC(=O)OCc1c(O)c2c([nH]c1=O)CCc1ccccc1-2", "TGI": "> 350"},
      {"compound": "COc1ccc(Nc2nc(NCCNc3ccnc4cc(Cl)ccc34)nc(N3CCOCC3)n2)cc1", "GI50": 10.3, "TGI": 22.6},
      {"compound": "COc1nc(N)nc2c1ncn2C1CC(O)C(CO)O1", "note": "(configuration not stated)", "TGI": "> 100"},
      {"compound": "CCCCN(CC)C(=O)C(=O)Cc1nc2ccc(C(=O)c3ccccc3)cc2[nH]c1=O", "TGI": "> 100"},
      {"compound": "CC(C)(C)c1cc(/C=C(\\C#N)C2=NCCO2)cc(C(C)(C)C)c1O", "TGI": 10.6},
      {"compound": "COc1cc2nc(Nc3cccc(Cl)c3)nc(N)c2cc1OC", "GI50": 9.84, "TGI": 24.4},
      {"compound": "CCOC(=O)c1ccc(-n2cnc(-c3ccc([N+](=O)[O-])cc3)c2)cc1", "TGI": "> 100"},
      {"compound": "NC1=Nc2ccccc2Sc2nncn21", "TGI": "> 100"},
      {"compound": "Cc1cc(N(CCC#N)CCC#N)ccc1/C(N=Nc1ccc([N+](=O)[O-])cc1)=N\\NC(=O)c1cc(Cl)ccc1O", "TGI": "> 100"},
      {"compound": "Nc1nc(Cl)cc(NCC2(CCO)CCC2)n1", "TGI": "> 100"},
      {"compound": "CSC(=NC(=O)c1ccccc1Cl)SCCSC(=NC(=O)c1ccccc1Cl)SC", "TGI": "> 100"},
      {"compound": "O=C1c2c(c(=O)[nH]c3ccccc23)[C@H](c2ccccc2)[C@@H]2CCCN12", "GI50": 2.74, "TGI": 13.4},
      {"compound": "COc1ccc(S(=O)(=O)Nc2ccc(-c3csc(N4C(=O)/C(=C/c5ccccc5[N+](=O)[O-])N=C4c4ccccc4)n3)cc2)cc1Cl", "TGI": "> 100"},
      {"compound": "Cc1cccc(-c2nnc3s/c(=C\\c4ccc(N(C)C)cc4)c(=O)n23)c1", "TGI": "> 100"},
      {"compound": "O=c1onc2n1-c1ccc(Cl)cc1C(=S)N1CSCC21", "note": "(configuration not stated)", "TGI": "> 100"},
      {"compound": "COC[C@H](NC(=O)c1cnc(C)s1)C(=O)N[C@@H](COC)C(=O)N[C@@H](Cc1ccccc1)C(=O)[C@@]1(C)CO1", "GI50": "> 93", "TGI": "> 100"},
      {"compound": "NCC(=O)Nc1ccccc1", "TGI": "> 100"},
      {"compound": "CC1=C(C#N)C23C(=O)N(c4ccccc4)C(=O)C2=C(O)C=CC3(O)N1Cc1ccc(Cl)cc1Cl", "note": "(configuration not stated)", "GI50": 7.13, "TGI": 20.9},
      {"compound": "CCCn1cc2c(=O)[nH]c(SC)nc2n1", "TGI": "> 100"},
      {"compound": "Fc1cc(C2=Nn3c(COc4ccccc4Cl)nnc3S/C2=C\\c2ccc(Cl)cc2)c(Cl)cc1Cl", "TGI": "> 100"},
      {"compound": "CC(=O)O.CN1[CH-]N(Cc2ccc(C#N)cc2)c2ccccc21.[Ag+]", "GI50": 53, "TGI": "> 100"},
      {"compound": "COC(=O)Nc1nc2ccc(NS(=O)(=O)c3cccs3)cc2[nH]1", "TGI": "> 100"},
      {"compound": "C(=N\\Nc1ncc(-c2cc3cc4c(cc3o2)OCO4)s1)/c1ccco1", "GI50": 4.15, "TGI": 24.2},
      {"compound": "O=C(C[n+]1ccccc1)N/N=C(/CCC(=O)N(Cc1ccccc1)Cc1ccccc1)CC(=O)c1ccccc1", "TGI": "> 100"}
    ]}
  ]
}
